Hit rate of the full screen: of about 52,000 compounds, about 1,700 (3.3%) were called active. Rule as the data show it: active = survival mostly below about 52% (no sharp cut-off); inactive = mostly above about 56%. This is one part of the list.

The test system of this assay is Wild type. As to the kind of experiment: S. aureus survival, RN4220 and DeltatarO strains – OD600, teichoic acid synthesis inhibitors, primary screen (AID 463173). Conditions: S. aureus RN4220 wild type/DeltatarO growth, OD600, 18 h, hits give low values, screened at 18.75 µg/mL (by protocol).
In the case of `COc1ccc(Br)cc1CNC(=O)c1cc(=O)[nH]c2ccc(S(=O)(=O)N3CCCC3)cc12`, the survival was inactive: 68%.
To `CCOc1cccc2cc(-c3nc4sc5c(c4c(=O)[nH]3)CCC(C(C)(C)C)C5)c(=O)oc12` (configuration not stated) belongs inactive: 85%; to `CCCNC(=O)c1cc2nc(-c3ccc(Br)cc3)cc(C(F)(F)F)n2n1`, inactive: 86%; to `COc1ccc(Br)cc1CNC(=O)c1cc2ccccn2n1`, inactive: 73%.
On to `O=C(COC(=O)c1cc(-c2cccs2)nc2ccccc12)c1ccc(Br)cc1`, for which the survival is inactive: 131%.
Consider `CCOc1ccccc1NC(=O)Cn1c(=O)n(CCC(C)C)c(=O)c2cccnc21`, for which the survival was inactive: 85%.
As for `Cc1cc(C)cc(OCCn2c(C3CC(=O)N(c4ccccc4Cl)C3)nc3ccccc32)c1` (configuration not stated), the survival is inactive: 97%.
The same measure for `CC1=C(C(=O)Nc2ccccc2)C(c2ccccc2C)n2ncc(C(=O)Nc3ccccc3)c2N1` (configuration not stated): inactive: 136%; for `Cc1nc2ccccc2n1CCc1nc2c3ccccc3nc(SCc3cccc(F)c3)n2n1`: inactive: 74%; for `Cc1ccc2c(=O)c(C(=O)c3ccccc3)cn(CC(=O)Nc3ccc4c(c3)OCCO4)c2n1`: inactive: 69%.
To `CC1CCN(C(=O)CSCC(=O)O)CC1` belongs inactive: 101%; to `CC(C)(C)c1ccc(C2Sc3ccccc3NC3=C2C(=O)c2ccccc23)cc1` (configuration not stated), inactive: 82%.
For the molecule `Cn1c(=O)c2sccc2n2c(CCC(=O)NCc3ccc(F)cc3)nnc12`, the survival was inactive: 83%.
With `COc1ccc(CCNC(=O)CCn2c(=O)c3ccccc3n(CC(=O)Nc3ccccc3F)c2=O)cc1OC`, the survival is inactive: 87%.
The same measure for `COC(=O)c1cnn(-c2ccc(C(=O)Nc3cccc(C(C)=O)c3)cc2)c1N`: inactive: 79%.
The same measure for `CCOc1ccc(NC(=O)CC2C(=O)N(c3ccccc3)C(=O)N2CCc2ccc(OC)cc2)cc1` (configuration not stated): inactive: 72%; for `Cc1cc2cccc(C)c2nc1SCC(=O)O`: inactive: 104%; for `COc1ccc(Cn2c(C(=O)O)c(CNCc3cccc(OC)c3)c3ccc(C)cc32)cc1`: inactive: 76%.
For the molecule `CCCCN(CC)CCNC(=O)Cn1cnc2sc(C)c(S(=O)(=O)N3CCC(C)CC3)c2c1=O`, the survival is inactive: 75%.
The same measure for `CC1(C)C=C2C(=NN(c3ccccc3)C(N)=C2C#N)CO1`: inactive: 110%.
Regarding `O=C1CN(C(=O)Cc2ccc(F)cc2)C(c2ccccc2)c2cc(Br)ccc2N1` (configuration not stated), the survival is inactive: 86%.
Take `Cn1c(=O)oc2cc(S(=O)(=O)N3CCC(C(=O)NCc4ccccc4Cl)CC3)ccc21`: the survival is inactive: 133%.
Turning to `Cc1ccc(NC(=O)Cn2nc(C)c3nn(-c4ccc(Cl)cc4)c(C)c3c2=O)cc1C`, the survival is inactive: 78%.
To `CC(=O)c1ccc(N2CCN(S(=O)(=O)c3c(C)nc4sc(C)cn4c3=O)CC2)cc1` belongs inactive: 92%.
As for `Cc1cccc(N2CCN(C(=O)C3CCC(CNS(=O)(=O)c4ccc(Br)s4)CC3)CC2)c1C` (configuration not stated), the survival is inactive: 77%.
To `CCc1nn(CC(=O)N2CCN(c3cccc(C)c3C)CC2)c(=O)c2cc3occc3n12` belongs inactive: 87%; to `COc1ccc(N2C(=O)CSC23C(=O)N(CC(=O)NC2CCCCC2)c2ccccc23)cc1` (configuration not stated), inactive: 89%; to `Cc1cccc(OCc2cc(=O)n3c(-c4ccccc4)csc3n2)c1C`, inactive: 92%.
To `CCOC(=O)c1[nH]c(C)c(CCC(=O)Nc2c(C)cc(C)cc2C)c1C` belongs inactive: 127%.
To `CCCn1c(SCc2nc(-c3ccccc3C)no2)nnc1-c1ccc(Cl)cc1` belongs inactive: 78%; to `Cn1c(CN2CCCCC2)nc2cc(NC(=O)c3cccc(Br)c3)ccc21`, inactive: 92%; to `NC(=O)CSc1oc(-c2ccco2)nc1S(=O)(=O)c1ccc(Br)cc1`, inactive: 91%.
Regarding `CCCCn1cc(S(=O)(=O)c2ccc(C)c(C)c2)c(=O)c2cc(F)c(N3CCN(C)CC3)cc21`, the survival was inactive: 70%.
The same measure for `CCOC(=O)N1CCN(C(=O)Cc2cccs2)CC1`: inactive: 114%.
`CCc1nn(CC(=O)NC(C)CCc2ccccc2)c(=O)c2cc3cc(F)ccc3n12` (configuration not stated): the survival is inactive: 78%.
To `CCc1nnc(NC(=O)c2nc(S(=O)(=O)Cc3cccc(C)c3)ncc2Cl)s1` belongs inactive: 55%; to `CCC(C(=O)Nc1ccccc1C(=O)OC)n1c(C)c2cnn(-c3ccccc3)c(=O)c2c1C` (configuration not stated), inactive: 85%.
For `CCC(Oc1ccccc1)C(=O)Nc1ccc(O)c(-c2nc3cc(C)ccc3o2)c1` (configuration not stated), the survival was inactive: 78%.
To `O=C(CN1C(=O)CCSc2ccc(S(=O)(=O)N3CCCC3)cc21)Nc1ccccc1` belongs inactive: 82%.
To `CCn1cc(C(=O)NCCCOC(C)C)c(=O)c2cc(S(=O)(=O)N3CCc4ccccc4C3)ccc21` belongs inactive: 128%.
For the molecule `Cc1cc(S(=O)(=O)N2CCCC2)ccc1-n1cnnn1`, the survival is inactive: 111%.
The same measure for `O=C(Cn1cc(S(=O)(=O)Cc2ccccc2Cl)c2ccccc21)NCc1ccccc1Cl`: inactive: 95%; for `COc1ccc(NC(=O)Cn2c(=O)n(CCCC(=O)NCc3ccccc3OC)c(=O)c3ccccc32)cc1Cl`: inactive: 136%.
Turning to `COc1cccc(NC(=O)CCS(=O)(=O)c2ccc3c(c2)oc(=O)n3C)c1`, the survival is inactive: 72%.
To `Cn1c(NCCCCO)nc2c1c(=O)n(Cc1ccc(Cl)cc1)c(=O)n2C` belongs inactive: 78%; to `Cc1ccc(C)c(Cn2c(C(C)NC(=O)c3ccc(F)cc3)nc3ccccc32)c1` (configuration not stated), inactive: 83%; to `CCN(c1ccccc1)S(=O)(=O)c1cc(-c2onc(C)c2C)ccc1OC`, inactive: 63%.
The same measure for `CCOc1ccccc1NC(=O)CCS(=O)(=O)c1cccc2nsnc12`: inactive: 103%; for `Cc1c2cnn(CC(=O)N3CCN(c4ccccc4)CC3)c(=O)c2c(C)n1Cc1ccc(F)cc1`: inactive: 85%; for `Cc1cccc(N2CCN(C(=O)C3CCCN(S(=O)(=O)c4cccc5nsnc45)C3)CC2)c1C` (configuration not stated): inactive: 67%.
Regarding `O=C1CC(c2ccccc2)Cc2[nH]c(=O)c(C(=O)Nc3ccc(OC(F)(F)F)cc3)cc21` (configuration not stated), the survival is inactive: 139%.
Turning to `CCn1c(=O)c2sccc2n2c(CCCC(=O)N3CCN(c4ccc(OC)cc4)CC3)nnc12`, the survival is inactive: 96%.
To `COc1cccc(N2C(=O)C(CC(=O)Nc3ccc(Cl)cc3)N(Cc3ccc4c(c3)OCO4)C2=O)c1` (configuration not stated) belongs inactive: 53%; to `CCc1cccc(NC(=O)c2nnn(Cc3ccc(SC)cc3)c2N)c1`, inactive: 83%.
As for `COc1ccc(N2CCN(C(=O)c3c(C)oc4ncnc(N5CCCCC5)c34)CC2)cc1`, the survival was inactive: 123%.
As for `CCOCCCNC(=O)C(c1ccccc1)N(Cc1cccs1)C(=O)c1ccc(NC(C)=O)cc1` (configuration not stated), the survival was inactive: 94%.
For the molecule `COCCn1c(CCC(=O)Nc2cc(C)ccc2C)nc2cccnc21`, the survival is inactive: 127%.
To `Cc1cccc(-c2noc(CCCC(=O)NCc3ccco3)n2)c1` belongs inactive: 84%; to `O=C(Nc1ccc(Br)cc1)C1CCCN(S(=O)(=O)c2ccc(Br)s2)C1` (configuration not stated), inactive: 85%.
As for `O=c1[nH]c2ccc(NCc3ccc(-c4cccc(Cl)c4)o3)cc2[nH]1`, the survival was inactive: 88%.
To `CCOc1ccc(S(=O)(=O)N2CCN(c3cc(Cl)ccc3Cl)CC2)c2ccccc12` belongs inactive: 79%.
For `Cn1c(=O)c2c(SCC(=O)N3CCc4ccccc43)nc(-c3cccc(F)c3)nc2n(C)c1=O`, the survival is inactive: 146%.
On to `CCOc1ccccc1CNC(=O)C1CCN(S(=O)(=O)c2cccc3nonc23)CC1`, for which the survival is inactive: 63%.
To `CCc1ccccc1NC(=O)C(CC)Sc1ncnc2c1sc1ccccc12` (configuration not stated) belongs inactive: 68%; to `Cc1ccc(NC(=O)CN2C(=O)C(c3ccc(F)cc3)=NC23CCCCC3)c(C)c1`, inactive: 68%.
`O=C(CCCCCn1c(=O)[nH]c2ccccc2c1=O)NCc1cccc(Cl)c1`: the survival is inactive: 66%.
The same measure for `Cc1ccccc1OC(=O)c1snnc1C`: inactive: 85%; for `O=C(Cc1ccccc1)N(Cc1cccnc1)c1nc2c(F)cccc2s1`: inactive: 70%; for `O=C(Nc1ccc(Cl)cc1F)c1oc(=O)c2ccccc2c1-c1ccccc1`: inactive: 73%.
For `O=C(NCc1ccc(Cl)cc1)c1ccc(CSCc2cccc(Cl)c2)o1`, the survival is inactive: 131%.
Turning to `CCOc1ccccc1NC(=O)CSc1nc2c(c(=O)[nH]1)CCC2`, the survival is inactive: 106%.
With `CCOc1cccc2cc(-c3cn4c(n3)sc3cc(C)ccc34)c(=O)oc12`, the survival is active: -6%.
The same measure for `CCNC(=S)N1CCN(CCN=CC2=C(O)CC(C)(C)CC2=O)CC1`: inactive: 109%; for `COc1ccc(OCc2nc3ccccc3n2C(C)c2ccccc2)cc1` (configuration not stated): active: -2%.
As to `Cc1ccnc(NS(=O)(=O)c2ccc(NC(=O)C(C)(C)Oc3ccc(Cl)cc3)cc2)n1`, the survival is inactive: 61%.
The same measure for `Fc1c(F)c(Oc2ccccc2)c(F)c(F)c1Oc1ccccc1`: inactive: 129%; for `Cc1ccc(OCC(=O)Nc2cccc(OCc3cc(=O)n4ccccc4n3)c2)cc1C`: inactive: 80%.
The same measure for `Cc1cc(C)c2c(CC(=O)Nc3ccc(S(=O)(=O)N4CCCC(C)C4)cc3)coc2c1` (configuration not stated): inactive: 84%; for `O=C(Cc1ccccc1)N1CCSC1=S`: inactive: 109%; for `CCC(C(=O)Nc1ccc(C(=O)OC)cc1)n1nc(-c2ccc(C)cc2)c2c(c1=O)CCCC2` (configuration not stated): inactive: 132%.
To `O=S(=O)(c1ccc2oc(-c3cccnc3)nc2c1)c1ccc2oc(-c3cccnc3)nc2c1` belongs inactive: 106%; to `CCOc1cc(C2Nc3ccccc3-c3nnc(SCc4ccccc4)nc3O2)ccc1OC` (configuration not stated), inactive: 69%.
For `Cc1cc(Br)ccc1NC(=O)C(Cc1ccccc1)NS(=O)(=O)c1ccc(Br)s1` (configuration not stated), the survival was inactive: 130%.
`C=C(C)Cn1c(SCC(=O)c2ccc(OC)cc2)nc2sc3c(c2c1=O)CCCC3`: the survival is inactive: 49%.
In the case of `C#CCn1c(COc2ccccc2C)nc2ccccc21`, the survival was inactive: 115%.
On to `COc1cccc(CNC(=O)c2cc3cccc4c3n2CC(C)S4)c1OC` (configuration not stated), for which the survival is inactive: 82%.
To `Cc1ccc(-c2noc(-c3ccc(N4CCC(C)CC4)c([N+](=O)[O-])c3)n2)cc1` belongs inactive: 85%.
